Square brackets hold non-standard residues; d marks the D form. Peptide text beside a SMILES is read from it. * marks the point of attachment. dPhe(4-NHCONH2) = NC(=O)Nc1ccc(C[C@@H](N)C(=O)O)cc1; Dihydroorotyl(S) = O=C1C[C@@H](C(=O)*)NC(=O)N1; dPhe(4-Cl) = N[C@H](Cc1ccc(Cl)cc1)C(=O)O; Phe(4-NH2) = Nc1ccc(C[C@H](N)C(=O)O)cc1; d2Nal = N[C@H](Cc1ccc2ccccc2c1)C(=O)O; Lys(iPr) = CC(C)NCCCC[C@H](N)C(=O)O; d3Pal = N[C@H](Cc1cccnc1)C(=O)O
Experiments:
C57BL/6 recipients = assay: Murine GVHD model; assay type: in vivo, mouse; settings: LHRH-Ant treated versus control mice
[1] = tested on: lymphocytic choriomeningitis virus (LCMV); assay type: in vivo, mouse; settings: day 8 after infection, vs vehicle treated mice
C57BL/6 mice [2] = assay: Survival after a lethal dose of irradiation (845 cGy)
[3] = tested on: Luc+ LSK hematopoietic stem cells; assay: Expansion of transferred Luciferase-positive LSK cells after lethal TBI; assay type: in vivo, mouse; settings: 840 cGy, treated 24 hours later, Luc+ LSK transferred 48 hours after treatment, vs vehicle
Experimental: Bottom left is a bar graph indicating the total number of photons measured in both treatment groups.
We continued our analysis of the increase in hematopoietic stem cells (HSCs) in mice treated with a LHRH antagonist after irradiation using a reporter molecule (Luciferase). […] At 48 hours after treatment, 20,000 Luciferase-positive Lineage-Sca1^+ckit^+ (Luc^+ LSK) hematopoietic stem cells were transferred to animals in each treatment group.

C57BL/6 mice [4] = assay: Survival and hormone levels after lethal TBI, with surgical castration; assay type: in vivo, mouse
Source text: FIG. 12A, percent survival in mice given total body irradiated (TBI, black circle), mice given total body irradiated plus castration (TBI+castration, grey triangle) and mice given total body irradiated plus castration and treated with Degarelix (TBI+castration+LHRH-Ant, grey inverted triangle). FIG. 12B, ng/mL levels of testosterone, luteinizing hormone (LH) and follicle-stimulating hormone (FSH) at 2, 7 and/or 14 days after a lethal dose of total body irradiation among control (open bars), lethal total body irradiated (LTBI, black bars) and lethal total body irradiation treated with Degarelix (LTBI+LHRH-Ant, grey bars).
In another experiment, we wanted to determine if downstream and/or upstream targets could also have an effect on survival after TBI in mice. Mice were surgically castrated one day before total body irradiation (TBI) and administered vehicle (control) or Degarelix (LHRH-Ant). […] Measurements of testosterone, follicle-stimulating hormone (FSH) and luteinizing hormone (LH) were taken for each treatment group at several days post irradiation.

C57BL/6 mice [5] = assay: Lymphoid reconstitution, treatment 24 h after SL-TBI
[6] = tested on: CD5+ enriched splenocytes; assay: T cell in vitro assay (proliferation, cytokine production) of splenocytes 42 days after SL-TBI; assay type: cell-based, mouse; settings: T cells from treated mice 42 days after SL-TBI
Experimental: To evaluate T cell proliferation and cytokine production, spleens were harvested 42 days after SL-TBI and T cells were purified by CD5^+ selection. Half of the cells were stimulated for 5 hours with PMA, Ionomycin (50 ng/ml and 1 ug/ml, respectively) and BD Golgi Plug (1 μl/ml) and cytokines evaluated by intracellular flow cytometric analysis. The remaining cells were CFSE (Invitrogen) labeled and plated on αCD3/αCD28 (5 μg and 1 μg, respectively) pre-coated plates. Proliferation was assessed by measuring the number of cell divisions 2 days after stimulation by flow cytometric analysis.

hematopoietic stem cells = assay: Repopulating potential of hematopoietic stem cells in secondary transplant; settings: vs control group
[7] = tested on: hematopoietic stem cells (LSK, LT-HSC); assay: Hematopoietic stem and progenitor cells after lethal TBI; assay type: in vivo, mouse; settings: treated 24 hours later
Source text: FIG. 8A, bar graphs (left) show total number of cells for LSK and LT-HSC populations among treatment groups; contour plots (right) show the relative frequency of each LSK and LT-HSC populations among treatment groups. FIG. 8B, bar graphs (top row) show the percentage of LT-HSCs (CD150^+CD48^−) for the indicated gated populations (G0, G1, S/G2/M); contour plots (bottom) show the relative frequency of the LT-HSC populations for each gate among both treatment groups.
Mouse survival was monitored daily.
Further, we observed an induction of LT-HSCs to proliferate (FIG. 8B), which is a prerequisite to reconstitution of hematopoiesis.

[8] = tested on: C57BL/6 allo-HSCT recipients; assay: Thymic and peripheral reconstitution after allo-HSCT; settings: for at least 3 months after transplant

**Q.** Which GVHD mortality (C57BL/6 recipients) does the source give for `CC(=O)N[C@H](Cc1ccc2ccccc2c1)C(=O)N[C@H](Cc1ccc(Cl)cc1)C(=O)N[C@H](Cc1cccnc1)C(=O)N[C@@H](CO)C(=O)N[C@@H](Cc1ccc(NC(=O)[C@@H]2CC(=O)NC(=O)N2)cc1)C(=O)N[C@H](Cc1ccc(NC(N)=O)cc1)C(=O)N[C@@H](CC(C)C)C(=O)N[C@@H](CCCCNC(C)C)C(=O)N1CCC[C@H]1C(=O)N[C@H](C)C(N)=O` [Degarelix] (Ac-[d2Nal][dPhe(4-Cl)][d3Pal]S[Phe(4-NH2)](Dihydroorotyl(S))[dPhe(4-NHCONH2)]L[Lys(iPr)]P[dA]-NH2) here?
**A.** did not observe significant difference

**Q.** What about the “LCMV viral burden in spleen” value [1] of the same molecule?
**A.** significantly lower

**Q.** And the incidence of survival (C57BL/6 mice [2]; Degarelix-treated vs control group after lethal TBI)?
**A.** higher incidence of survival

**Q.** What about the “survival, Mantel-Cox log-rank p, Degarelix vs vehicle” value (C57BL/6 mice [2]; females, n=15, single dose 24 hours after 845 cGy) of the same molecule?
**A.** < 0.001

**Q.** What about the “window for treatment after total body irradiation” value (C57BL/6 mice [2]; lethal TBI 845 cGy) of the same molecule?
**A.** at least 48 hours

**Q.** And the “survival, Mantel-Cox log-rank p, Degarelix vs vehicle” value (C57BL/6 mice [2]; males and females, n=14, single dose 48 hours after 845 cGy)?
**A.** < 0.05

**Q.** What about the “survival, Mantel-Cox log-rank p, Degarelix vs vehicle” value (C57BL/6 mice [2]; males, n=40, single dose 24 hours after 845 cGy) of the same molecule?
**A.** < 0.0001

**Q.** What about the “expansion of Luciferase-positive HSCs” value [3] of the same molecule?
**A.** consistently more expansion

**Q.** And the “LH and FSH levels” value (C57BL/6 mice [4]; after lethal TBI, vs controls)?
**A.** relatively unchanged

**Q.** And the level of testosterone (C57BL/6 mice [4]; after lethal TBI, vs controls)?
**A.** drastically less

**Q.** What about the survival (C57BL/6 mice [4]; mice surgically castrated one day before TBI and administered Degarelix) of the same molecule?
**A.** enhanced survival

**Q.** And the thymic stroma (C57BL/6 mice [5]; 7 days after SL-TBI, vehicle vs Degarelix)?
**A.** did not show significant difference

**Q.** And the “CD8+ naive T cells” value (C57BL/6 mice [5]; 42 days after SL-TBI)?
**A.** most increased population

**Q.** What about the thymic cellularity (C57BL/6 mice [5]; 42 days after SL-TBI, vs vehicle treated and untreated mice) of the same molecule?
**A.** significantly higher

**Q.** And the all thymic subsets (C57BL/6 mice [5]; 42 days after SL-TBI, vs vehicle-treated and untreated mice)?
**A.** significantly increased

**Q.** What about the DP thymocytes (C57BL/6 mice [5]; day 7 after SL-TBI) of the same molecule?
**A.** significant increase

**Q.** What about the “CD4+ and CD8+ thymocytes counts” value (C57BL/6 mice [5]; day 7 after SL-TBI, vs irradiated control mice) of the same molecule?
**A.** did not detect a significant enhancement

**Q.** And the thymus cellularity (C57BL/6 mice [5]; day 7 after irradiation, vs vehicle)?
**A.** significantly increased

**Q.** What about the B cell counts (C57BL/6 mice [5]; day 28 and 42, vs vehicle group) of the same molecule?
**A.** significantly increased

**Q.** And the mTEChi cell number (C57BL/6 mice [5]; day 42 after SL-TBI)?
**A.** significantly increased

**Q.** What about the splenic cellularity (C57BL/6 mice [5]; starting from day 28 after SL-TBI) of the same molecule?
**A.** recovered faster

**Q.** What about the “proliferation of CD4+ T cells upon T cell receptor (TCR) ligation” value [6] of the same molecule?
**A.** significantly increased

**Q.** What about the “stem cells (donor CD45.2+ derived cells in recipients)” value (hematopoietic stem cells) of the same molecule?
**A.** more stem cells

**Q.** What about the “proliferation of LT-HSCs” value [7] of the same molecule?
**A.** induction

**Q.** What about the “long-term hematopoietic stem cells (LT-HSC)” value ([7]; vs controls) of the same molecule?
**A.** significantly more

**Q.** What about the “total Lineage-Sca1+ckit+ (LSK) cells” value ([7]; vs controls) of the same molecule?
**A.** significantly more

**Q.** And the developing thymocytes [8]?
**A.** significant increase in all subsets

**Q.** How did the survival (C57BL/6 mice [2]; single dose of Lupron 24 hours after lethal TBI (845 cGy), vehicle PBS) turn out when `CCNC(=O)[C@@H]1CCCN1C(=O)[C@H](CCCNC(=N)N)NC(=O)[C@H](CC(C)C)NC(=O)[C@@H](CC(C)C)NC(=O)[C@H](Cc1ccc(O)cc1)NC(=O)[C@H](CO)NC(=O)[C@H](Cc1c[nH]c2ccccc12)NC(=O)[C@H](Cc1c[nH]cn1)NC(=O)[C@@H]1CCC(=O)N1` [Lupron, leuprolide] was run?
**A.** significant survival
